# Laboratory results as given in PubChem BioAssay AID1460 (National Center for Advancing Translational Sciences (NCATS), 2008).
# “And” between values parts separate entries of the source, which are not always exact repeats. Equal values may be shown once. The campaign covered roughly 270,000 compounds. About 5,800 (2.1%) were called active. Inconclusive means that the source gave no clear call. Such entries were picked first, then a sample of the others. The call rests on the fitted dose curve; in most records, active means well fitted inhibition curve with a large enough effect; inconclusive means small, poorly fitted or top-dose-only effect; inactive means flat fitted curve, though single readings scatter. Potencies beside an inconclusive call are fits to weak or partial responses and may not hold up.
# Target: Microtubule-associated protein tau (Homo sapiens) (UniProt P10636)
# Sequence of UniProt P10636 (P10636 whole entry, looked up): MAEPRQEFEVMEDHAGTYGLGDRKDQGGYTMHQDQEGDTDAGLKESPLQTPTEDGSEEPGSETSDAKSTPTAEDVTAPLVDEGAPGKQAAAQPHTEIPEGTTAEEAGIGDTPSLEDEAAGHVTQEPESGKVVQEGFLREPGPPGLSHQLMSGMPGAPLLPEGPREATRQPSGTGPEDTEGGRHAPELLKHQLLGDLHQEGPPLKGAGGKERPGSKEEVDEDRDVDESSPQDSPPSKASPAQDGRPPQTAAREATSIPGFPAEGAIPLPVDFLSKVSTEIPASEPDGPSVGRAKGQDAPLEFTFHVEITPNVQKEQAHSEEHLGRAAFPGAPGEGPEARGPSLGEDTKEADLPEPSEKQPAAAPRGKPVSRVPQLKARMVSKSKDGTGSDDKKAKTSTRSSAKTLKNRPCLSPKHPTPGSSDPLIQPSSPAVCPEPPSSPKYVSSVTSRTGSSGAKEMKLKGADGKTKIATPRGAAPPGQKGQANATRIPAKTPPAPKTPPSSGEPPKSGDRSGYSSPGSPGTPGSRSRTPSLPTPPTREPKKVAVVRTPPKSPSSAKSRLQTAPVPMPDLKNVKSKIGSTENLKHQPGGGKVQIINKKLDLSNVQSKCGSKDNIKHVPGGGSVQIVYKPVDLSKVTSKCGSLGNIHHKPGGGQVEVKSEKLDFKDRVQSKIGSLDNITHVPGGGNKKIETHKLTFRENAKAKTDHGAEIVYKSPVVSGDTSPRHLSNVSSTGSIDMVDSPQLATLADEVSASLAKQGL
# Test: qHTS for Inhibitors of Tau Fibril Formation, Thioflavin T Binding; further: nearly all actives have a fitted effect of over 55% in size
# Settings: recombinant tau K18 P301L (four-repeat tau fragment), heparin-induced fibrillization, ThT fluorescence; series mostly up to 57.4 µM; activity, negative = inhibition: at the top concentration
# Outline: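 Heparin-induced fibrillization of the P301L-mutant K18 repeat-domain fragment of human tau was followed by ThT binding in quantitative high-throughput format.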
# On the % scale 0 is the no-effect control and ±100 the full control effect; potency means the concentration at half of the fitted maximal effect; tags describe the fitted curve by direction and shape.
Compound,"activity, negative = inhibition",Potency
CC(C)CN1CCN(Cc2cccn2-c2cccnc2)CC1CCO (configuration not stated),inactive: -14.3%,
CC(C)Sc1nnc(NC(=O)C2CC2)s1,inactive: 7.16%,
CCN(CC)S(=O)(=O)c1ccc(F)c(C(=O)NCCC(C)C)c1,inactive: 2.52%,
COc1ccc(C(=O)Nc2cccc(/C(C)=N/NC(=O)c3ccc([N+](=O)[O-])c(C)c3)c2)cc1OC,,"inconclusive: 2.51 µM [inhibitor, full curve]"
CCOC(=O)c1cc(-c2ccc(C)cc2)nn1Cc1ccccc1,inactive: -9.62%,
O=C1OC(c2ccccc2)=N/C1=C\C=C\c1ccco1,,active: 14.1 µM
Cc1ccccc1Cn1cc(NC(=O)c2cc3nc(-c4ccco4)cc(C(F)(F)F)n3n2)cn1,,"inconclusive: 14.1 µM [inhibitor, partial curve]"
CCOC(=O)Cc1cc(=O)c2c(=O)n(-c3ccccc3)[nH]c2[nH]1,,"inconclusive: 22.4 µM [inhibitor, partial curve]"
Cc1ccc(S(=O)(=O)N(CC(=O)N2CCC(C(N)=O)CC2)c2cccc(C(F)(F)F)c2)cc1,inactive: 1.07%,
CCNC(=O)Nc1ccc(-n2nc(C)c(C(=O)OCC)c2C)nc1,,"inconclusive: 17.8 µM [inhibitor, partial curve]"
Cc1nn(-c2ccccc2)c(Cl)c1/C=C1/C(=N)N2N=C(C(C)C)SC2=NC1=O,,"inconclusive: 39.8 µM [inhibitor, single point]"
O=c1c2cc(Cl)ccc2nc(-c2ccc(Cl)c(Cl)c2)n1O,,"inconclusive: 35.5 µM [inhibitor, single point]"
Cc1ccc(C2=Nc3ccccc3NC(c3ccncc3)=N2)cc1,inactive: -17.2%,
CCn1c(SCC(=O)N/N=C/C=C\c2ccccc2[N+](=O)[O-])nc2ccccc21,,"inconclusive: 15.8 µM [inhibitor, partial curve]"
COc1ccc(C(=O)CNc2ccc3ccccc3c2)cc1,,"inconclusive: 3.55 µM [inhibitor, full curve]"
C=CCNC(=O)c1ccc(Cl)cc1Cl,inactive: 6.34%,
CCc1cccc2cc3c(N)c(C(=O)Nc4ccc(S(=O)(=O)N5CCCC5)cc4)sc3nc12,,active: 5.62 µM
CC(=O)CSc1ncnc2c1cnn2-c1ccccc1,,"inconclusive: 15.8 µM [inhibitor, partial curve, poor fit]"
CCc1ccc(NC(=O)c2cc3c(=O)n(Cc4cccs4)ccc3nc2C)cc1,,"inconclusive: 39.8 µM [inhibitor, single point]"
COc1ccc2c(c1)c(=O)c(S(=O)(=O)c1ccc(C)c(C)c1)cn2CC(=O)Nc1ccccc1,inactive: 3.94%,
CN(Cc1cccs1)S(=O)(=O)c1cccs1,inactive: 0.543%,
CCN(CCCNC(=O)c1cc2c(=O)n(CC)c3ccccc3c2s1)c1cccc(C)c1,,"inconclusive: 1.78 µM [inhibitor, full curve, poor fit]"
CN(C)S(=O)(=O)c1cc(NC(=O)CSc2nn(-c3ccc(Cl)cc3)c(=S)s2)ccc1Cl,,"inconclusive: 3.55 µM [activator, single point]"

Compound,"activity, negative = inhibition",Potency
COC(=O)[C@@]1(Cc2ccc(OC)cc2)[C@@H]2C(=CC(=O)[C@H]2CC(=O)C(=O)N(C)C)CN1C(=O)c1ccccc1,,"inconclusive: 35.5 µM [inhibitor, single point] and inconclusive: 15.8 µM [inhibitor, partial curve, poor fit]"
CC(=O)c1cc(-c2ccc(F)cc2)n(CCC(=O)Nc2nc3c(C)cccc3s2)c1C,inactive: 9.81%,
COc1ccc(/C=C\c2cc(OC)c(OC)cc2CC[N+](C)(C)C)cc1OC,,"inconclusive: 25.1 µM [inhibitor, partial curve, poor fit]"
Cc1ccc(-c2nn(C)c(=O)c3ccccc23)cc1CNC(=O)NC1CCCCC1,,"inconclusive: 12.6 µM [inhibitor, partial curve]"
N=c1c2c(-c3ccccc3)c(-c3ccccc3)n(Cc3ccco3)c2ncn1Cc1ccccc1,,"inconclusive: 31.6 µM [inhibitor, partial curve]"
O=C1COc2cc(S(=O)(=O)CCC(=O)N3CCN(c4cccc(Cl)c4)CC3)c(Cl)cc2N1,,"inconclusive: 0.398 µM [inhibitor, full curve]"
CCOc1ccc(CNC(=O)Cn2nc(C)c3nn(-c4ccc(Cl)cc4)c(C)c3c2=O)cc1OC,,"inconclusive: 39.8 µM [activator, single point]"
O=S(=O)(c1ccccc1)N1CCC(c2ccncc2)CC1,inactive: 1.92%,
O=C(CC1NCCc2ccccc21)Nc1ccccc1Cl (configuration not stated),,"inconclusive: 7.08 µM [inhibitor, single point]"
O=C(N/N=C/c1c[nH]c2ccc(Br)cc12)c1ccn(Cc2ccc(Cl)cc2)n1,,"inconclusive: 17.8 µM [inhibitor, partial curve]"
Cc1ccccc1N1CC(O)(c2ccccc2)[N+]2=C1SCC2 (configuration not stated),inactive: -14.1%,
C=CCn1c(-c2cccc(OC)c2OC)n[nH]c1=S,inactive: -6.55%,
Cc1ccc(Nc2nnc(-c3ccc4c(c3)OCO4)o2)c(C)c1,,"inconclusive: 2.82 µM [inhibitor, full curve]"
Cc1ccc(N(C(=O)Cn2nnc3ccccc32)C(C(=O)NCc2ccco2)c2cccnc2)cc1 (configuration not stated),,"inconclusive: 3.55 µM [inhibitor, single point]"
CC(C)(C)c1ccc(S(=O)(=O)NCc2nc3cccnc3n2Cc2ccccc2Cl)cc1,inactive: -13.4%,
COc1ccc2oc(=O)c(C(=O)N3CCN(c4ccccc4C)CC3)cc2c1,,"inconclusive: 22.4 µM [inhibitor, partial curve]"
O=C(CCc1ccccc1)n1nc(-c2ccco2)nc1SCc1ccccc1,,"inconclusive: 39.8 µM [inhibitor, single point]"
COc1ccccc1C(=O)N1CCN(c2nc3cc(C)c(C)cc3cc2C#N)CC1,,"inconclusive: 22.4 µM [inhibitor, single point]"
NC(=S)Nc1cc(Cl)ccc1Cl,inactive: -10.9%,
CC12CCC(C(=O)N(CSC(=S)N/N=C\c3ccccc3O)C1=O)C2(C)C (configuration not stated),inactive: 10.5%,
Cc1ccc(-n2c(C)cc(/C=N/Nc3ccc([N+](=O)[O-])cn3)c2C)cc1,,active: 2 µM
Cc1cccc(Nc2nc(N)c([N+](=O)[O-])c(N3CC(C)CC(C)C3)n2)c1 (configuration not stated),,"inconclusive: 25.1 µM [inhibitor, partial curve, poor fit]"
Cc1ccc(C)c(NS(=O)(=O)c2ccc(NC(=O)c3ccco3)cc2)c1,inactive: 2.96%,

Compound,"activity, negative = inhibition",Potency
Cc1nn(CC2CCCCC2)c(N)c1-c1ccccc1,,"inconclusive: 10 µM [inhibitor, partial curve]"
O=C(Nc1ccc(S(=O)(=O)N2CCOCC2)cc1)c1cc(-c2cc(Cl)ccc2O)n[nH]1,,"inconclusive: 22.4 µM [activator, partial curve]"
COc1ccccc1N1CCN(/N=C/c2cccc(OC)c2OC)CC1,,"inconclusive: 14.1 µM [inhibitor, partial curve]"
COc1cc(C2C3CN(C)CC=C3C(C#N)=C(N)C2(C#N)C#N)ccc1OC(C)C (configuration not stated),,"inconclusive: 31.6 µM [inhibitor, single point]"
COc1ccc(Cl)cc1Nc1nc(-c2sc(NC(=O)c3ccccc3)nc2C)cs1,,"inconclusive: 3.16 µM [inhibitor, full curve]"
O=C(CN1CCSc2ccccc21)N1CCN(c2cccc(Cl)c2)CC1,,"inconclusive: 14.1 µM [inhibitor, single point]"
COC(=O)c1cnn(-c2ccc(C(=O)Nc3ccc(C(C)=O)cc3)cc2)c1N,,"inconclusive: 0.708 µM [inhibitor, full curve, poor fit]"
COc1ccc(-c2noc(CCCC(=O)Nc3ccc(C(N)=O)cc3)n2)cc1OC,,"inconclusive: 17.8 µM [inhibitor, partial curve]"
Oc1[nH]c(N=C2N=c3ccccc3=N2)c2ccccc12,,"inconclusive: 2.82 µM [inhibitor, full curve, poor fit]"
Fc1ccccc1CSc1nc2ncc(Br)cc2[nH]1,inactive: -12.2%,
CC(=O)c1ccc(N2CCN(S(=O)(=O)c3cccc4nonc34)CC2)cc1,,"inconclusive: 20 µM [inhibitor, partial curve]"
COc1ccc(C2C(C#N)=C(N)Oc3c2sc2nc(C)cc(C)c32)cc1 (configuration not stated),,active: 25.1 µM
Cc1ccc(S(=O)(=O)N(C(=O)c2ccncc2)c2ccc(OC(=O)c3ccncc3)cc2)c(C)c1,,"inconclusive: 0.0794 µM [inhibitor, full curve, poor fit]"
COc1ccc(-c2c(C)cc3oc(=O)cc(-c4ccccc4)c3c2C)cc1C=O,,"inconclusive: 35.5 µM [inhibitor, partial curve, poor fit]"
COCOc1ccc(Br)cc1C(=O)[C@H]1O[C@H]1c1cccc(OC)c1,inactive: -11.1% [at 11.5 µM],
N#Cc1ccccc1-c1cncnc1NCc1cccnc1,inactive: -14.4%,
CC(C)c1cc(-c2nc(-c3ccccc3)no2)n[nH]1,,"inconclusive: 39.8 µM [inhibitor, single point]"
CCCN(CCC)S(=O)(=O)c1ccc(Cl)c([N+](=O)[O-])c1,inactive: -15.2%,
O=S(=O)(Nc1nc2ccccc2nc1NCc1ccco1)c1ccc(Cl)cc1,,"inconclusive: 14.1 µM [inhibitor, partial curve]"
COC(=O)c1c(NC(=O)C(Cl)Cl)sc2c1C(C(=O)OC)CC2 (configuration not stated),,"inconclusive: 44.7 µM [inhibitor, single point]"
Cc1[nH][nH]c(=O)c1C(c1ccc([N+](=O)[O-])cc1)c1c(C)[nH][nH]c1=O,,"inconclusive: 22.4 µM [inhibitor, partial curve, poor fit]"
